Data taken from US20250051434A1 (Merck Sharp & Dohme, published 2025).
Numbering of substitutions follows the chain as printed.

B1: IL-12-Fc-8 (Fc fusion)
chain 1: TPDPGMFPCLHHSQNLLRAVSNMLQKARQTLEFYPCTSEEIAHEDITKDKTSTVEACLPLELTKNESCLNSRETSFITNGSCLASRKTSFMMALCLSSIYEDLKMYQVEFKTMNAKLLMDPKRQIFLDQNMLAVIDELMQALNFNSETVPQKSSLEEPDFYKTKIKLCILLHAFRIRAVTIDRVMSYLNASGGGGSGGGGSGGGGS[skipping human IgG1 Fc with L234A L235A D265S S354C T366W (EU numbers)]
chain 2: IWELKKDVYVVELDWYPDAPGEMVVLTCDTPEEDGITWTLDQSSEVLGSGKTLTIQVKEFGDAGQYTCHKGGEVLSHSLLLLHKKEDGIWSTDILKDQKEPKNKTFLRCEAKNYSGRFTCWWLTTISTDLTFSVKSSRGSSDPQGVTCGAATLSAERVRGDNKEYEYSVECQEDSACPAAEESLPIEVMVDAVHKLKYENYTSSFFIRDIIKPDPPKNLQLKPLKNSRQVEVSWEYPDTWSTPHSYFSLTFCVQVQGKSKREKKDRVFTDKTSATVICRKNASISVRAQDRYYSSSWSEWASVPCSGGGGDKTHTCPPCPAPEAAGGPSVFLFPPKPKDTLMISRTPEVTCVVVSVSHEDPEVKFNWYVDGVEVHNAKTKPREEQYNSTYRVVSVLTVLHQDWLNGKEYKCKVSNKALPAPIEKTISKAKGQPREPQVCTLPPSRDELTKNQVSLSCAVKGFYPSDIAVEWESNGQPENNYKTTPPVLDSDGSFFLVSKLTVDKSRWQQGNVFSCSVMHEALHNHYTQKSLSLSPGK
B2: IL-12-Fc-31 (Fc fusion)
chain 1: B1 chain 1 with A42D
chain 2: B1 chain 2 with I89P
B3: IL-12-Fc-24 (Fc fusion)
chain 1: B1 chain 1 with A42D
chain 2: B1 chain 2 with K85E
B4: IL-12-Fc-16 (Fc fusion)
chain 1: B1 chain 1 with A42D, D159Y
chain 2: B1 chain 2
B5: IL-12-Fc-10 (Fc fusion)
chain 1: B1 chain 1 with A42W
chain 2: B1 chain 2
B6: IL-12-Fc-28 (Fc fusion)
chain 1: B1 chain 1 with A42D
chain 2: B1 chain 2 with I89A
B7: IL-12-Fc-12 (Fc fusion)
chain 1: B1 chain 1 with A42D, E44K
chain 2: B1 chain 2
B8: IL-12-Fc-7 (Fc fusion)
chain 1: B1 chain 1 with I41T, A42D
chain 2: B1 chain 2
B9: IL-12-Fc-27 (Fc fusion)
chain 1: B1 chain 1 with A42D
chain 2: B1 chain 2 with D87L
B10: IL-12-Fc-1 (Fc fusion)
chain 1: B1 chain 1 with E40K, A42D
chain 2: B1 chain 2
B11: IL-12-Fc-14 (Fc fusion)
chain 1: B1 chain 1 with A42D, D159K
chain 2: B1 chain 2
B12: IL-12-Fc-15 (Fc fusion)
chain 1: B1 chain 1 with A42D, D159R
chain 2: B1 chain 2
B13: IL-12-Fc-23 (Fc fusion)
chain 1: B1 chain 1 with A42D, K162D
chain 2: B1 chain 2
B14: IL-12-Fc-4 (Fc fusion)
chain 1: B1 chain 1 with I41A, A42D
chain 2: B1 chain 2
B15: IL-12-Fc-6 (Fc fusion)
chain 1: B1 chain 1 with I41S, A42D
chain 2: B1 chain 2
B16: IL-12-Fc-32 (Fc fusion)
chain 1: B1 chain 1 with A42D
chain 2: B1 chain 2 with K104E
B17: IL-12-Fc-33 (Fc fusion)
chain 1: B1 chain 1 with A42D
chain 2: B1 chain 2 with K104D
B18: IL-12-Fc-34 (Fc fusion)
chain 1: B1 chain 1 with A42D
chain 2: B1 chain 2 with K104W
B19: IL-12-Fc-20 (Fc fusion)
chain 1: B1 chain 1 with A42D, Y161A
chain 2: B1 chain 2
B20: IL-12-Fc-9 (Fc fusion)
chain 1: B1 chain 1 with A42L
chain 2: B1 chain 2
B21: IL-12-Fc-26 (Fc fusion)
chain 1: B1 chain 1 with A42D
chain 2: B1 chain 2 with D87A
B22: IL-12-Fc-29 (Fc fusion)
chain 1: B1 chain 1 with A42D
chain 2: B1 chain 2 with I89S
B23: IL-12-Fc-21 (Fc fusion)
chain 1: B1 chain 1 with A42D, Y161W
chain 2: B1 chain 2
B24: IL-12-Fc-5 (Fc fusion)
chain 1: B1 chain 1 with I41V, A42D
chain 2: B1 chain 2
B25: IL-12-Fc-35 (Fc fusion)
chain 1: B1 chain 1 with A42D
chain 2: B1 chain 2 with K104S
B26: IL-12-Fc-25 (Fc fusion)
chain 1: B1 chain 1 with A42D
chain 2: B1 chain 2 with K85Y
B27: IL-12-Fc-2 (Fc fusion)
chain 1: B1 chain 1 with E40R, A42D
chain 2: B1 chain 2
B28: IL-12-Fc-13 (Fc fusion)
chain 1: B1 chain 1 with A42D, E44R
chain 2: B1 chain 2
B29: IL-12-Fc-22 (Fc fusion)
chain 1: B1 chain 1 with A42D, K162E
chain 2: B1 chain 2
B30: IL-12-Fc-30 (Fc fusion)
chain 1: B1 chain 1 with A42D
chain 2: B1 chain 2 with I89D
B31: IL-12-Fc-17 (Fc fusion)
chain 1: B1 chain 1 with A42D, D159F
chain 2: B1 chain 2
B32: IL-12-Fc-3 (Fc fusion)
chain 1: B1 chain 1 with E40W, A42D
chain 2: B1 chain 2
B33: IL-12-Fc-11 (Fc fusion)
chain 1: B1 chain 1 with A42D, E44A
chain 2: B1 chain 2
B34: IL-12-Fc-38 (Fc fusion)
chain 1: B1 chain 1 with A42D, D159K
chain 2: B1 chain 2 with D87L
B35: IL-12-Fc-wt1 (Fc fusion)
chain 1: B1 chain 1 with A42D
chain 2: B1 chain 2
B36: IL-12-Fc-37 (Fc fusion)
chain 1: B1 chain 1 with A42D, E44R
chain 2: B1 chain 2 with D87L
B37: IL-12-Fc-36 (Fc fusion)
chain 1: B1 chain 1 with I41S, A42D
chain 2: B1 chain 2 with D87L

target: T1, human IL-12 receptor (IL-12R) (human, UniProt P42701 24-662; Q99665 24-862); test: cell-based or functional assay

| Mean Fold Reduction (potency vs IL-12 WT by EC50; HEK-Blue IL-12 STAT4/SEAP reporter) [fold] | Binder |
| --- | --- |
| 1 | B1 |
| 1 | B2 |
| 1 | B3 |
| 2 | B4 |
| 1 | B5 |
| 1 | B6 |
| 6 | B7 |
| 1 | B8 |
| 8 | B9 |
| 2 | B10 |
| 4 | B11 |
| 4 | B12 |
| 1 | B13 |
| 1 | B14 |
| 7 | B15 |
| 4 | B16 |
| 5 | B17 |

| Mean Fold Reduction (potency vs IL-12 WT by EC50; HEK-Blue IL-12 STAT4/SEAP reporter) [fold] | Binder |
| --- | --- |
| 3 | B18 |
| 5 | B19 |
| 2 | B20 |
| 1 | B21 |
| 1 | B22 |
| 2 | B23 |
| 2 | B24 |
| 2 | B25 |
| 2 | B26 |
| 1 | B27 |
| 2 | B28 |
| 2 | B29 |
| 2 | B30 |
| 3 | B31 |
| 2 | B32 |
| 4 | B33 |

target: T1, human IL-12 receptor (IL-12R); test: cell-based or functional assay; remark: another data set of the same source
T1 sequence (Q99665 24-862, chain 2 of 2, other chains not shown): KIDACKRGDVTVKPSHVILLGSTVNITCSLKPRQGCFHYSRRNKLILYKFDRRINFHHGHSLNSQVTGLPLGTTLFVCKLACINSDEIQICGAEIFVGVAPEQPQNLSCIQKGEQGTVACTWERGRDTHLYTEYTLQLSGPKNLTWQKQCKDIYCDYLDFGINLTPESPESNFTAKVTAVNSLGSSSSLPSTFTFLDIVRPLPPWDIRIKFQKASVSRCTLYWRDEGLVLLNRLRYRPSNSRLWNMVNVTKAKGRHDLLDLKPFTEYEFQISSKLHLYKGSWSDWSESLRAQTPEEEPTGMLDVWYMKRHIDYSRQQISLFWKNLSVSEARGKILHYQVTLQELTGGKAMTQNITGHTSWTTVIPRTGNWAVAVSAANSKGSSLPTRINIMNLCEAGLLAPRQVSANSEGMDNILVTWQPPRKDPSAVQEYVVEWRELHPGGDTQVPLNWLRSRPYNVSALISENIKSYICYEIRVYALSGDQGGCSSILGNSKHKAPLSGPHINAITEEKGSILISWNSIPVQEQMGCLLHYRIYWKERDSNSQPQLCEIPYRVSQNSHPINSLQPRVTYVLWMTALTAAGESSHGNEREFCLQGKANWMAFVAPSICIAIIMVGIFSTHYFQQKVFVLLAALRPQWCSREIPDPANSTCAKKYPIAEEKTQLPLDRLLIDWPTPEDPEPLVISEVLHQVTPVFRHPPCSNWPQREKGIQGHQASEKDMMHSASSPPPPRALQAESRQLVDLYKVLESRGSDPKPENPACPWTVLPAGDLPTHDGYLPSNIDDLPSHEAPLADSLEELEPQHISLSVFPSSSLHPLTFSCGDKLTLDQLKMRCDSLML

| Mean Fold Reduction (potency vs IL-12 WT by EC50; HEK-Blue IL-12 STAT4/SEAP reporter) [fold] | Binder |
| --- | --- |
| 1 | B34 |
| 1 | B35 |
| 1 | B36 |
| 1 | B37 |
